Laboratory results published in PMC4447371.
These are yes or no findings as the source states them, for the method shown. In cells and extracts the contact can be indirect. Some entries that bind do so weakly or less than the wild type.

Protein sequences, listed by entry. Tags and fused reporters are not part of them. Lines headed by an entry give the natural chain unless they say otherwise; changes in a name come on top. Chains listed by the source or under a name are the forms on record and can include a tag or linker. Residues count along the entry.
UniProt Q804S5: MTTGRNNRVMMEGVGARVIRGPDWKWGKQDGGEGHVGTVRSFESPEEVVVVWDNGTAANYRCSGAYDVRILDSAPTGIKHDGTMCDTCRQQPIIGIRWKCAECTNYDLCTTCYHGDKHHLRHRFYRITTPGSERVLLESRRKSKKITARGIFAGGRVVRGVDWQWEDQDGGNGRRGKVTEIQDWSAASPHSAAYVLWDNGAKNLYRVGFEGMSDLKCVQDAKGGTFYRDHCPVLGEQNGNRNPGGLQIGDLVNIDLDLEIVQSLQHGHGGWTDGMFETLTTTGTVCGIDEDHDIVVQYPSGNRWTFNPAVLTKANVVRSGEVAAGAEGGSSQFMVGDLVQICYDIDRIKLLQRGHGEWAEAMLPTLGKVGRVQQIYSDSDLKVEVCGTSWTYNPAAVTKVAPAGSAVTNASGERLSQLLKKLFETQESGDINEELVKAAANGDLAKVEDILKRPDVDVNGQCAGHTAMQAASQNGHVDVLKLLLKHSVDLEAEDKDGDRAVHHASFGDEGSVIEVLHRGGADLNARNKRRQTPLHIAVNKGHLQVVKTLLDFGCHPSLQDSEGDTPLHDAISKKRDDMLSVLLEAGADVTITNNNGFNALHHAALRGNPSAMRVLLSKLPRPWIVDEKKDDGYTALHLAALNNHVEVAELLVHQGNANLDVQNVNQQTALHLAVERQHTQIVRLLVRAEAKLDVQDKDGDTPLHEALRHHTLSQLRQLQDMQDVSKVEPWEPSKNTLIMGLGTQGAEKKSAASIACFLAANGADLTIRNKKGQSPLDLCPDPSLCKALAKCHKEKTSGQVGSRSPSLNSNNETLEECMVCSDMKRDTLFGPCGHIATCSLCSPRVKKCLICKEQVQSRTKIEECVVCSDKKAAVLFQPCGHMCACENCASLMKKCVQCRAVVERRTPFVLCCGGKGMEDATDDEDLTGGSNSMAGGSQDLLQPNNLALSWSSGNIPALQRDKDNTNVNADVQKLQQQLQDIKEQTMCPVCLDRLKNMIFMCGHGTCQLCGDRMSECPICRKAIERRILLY
UniProt Q8UWJ4: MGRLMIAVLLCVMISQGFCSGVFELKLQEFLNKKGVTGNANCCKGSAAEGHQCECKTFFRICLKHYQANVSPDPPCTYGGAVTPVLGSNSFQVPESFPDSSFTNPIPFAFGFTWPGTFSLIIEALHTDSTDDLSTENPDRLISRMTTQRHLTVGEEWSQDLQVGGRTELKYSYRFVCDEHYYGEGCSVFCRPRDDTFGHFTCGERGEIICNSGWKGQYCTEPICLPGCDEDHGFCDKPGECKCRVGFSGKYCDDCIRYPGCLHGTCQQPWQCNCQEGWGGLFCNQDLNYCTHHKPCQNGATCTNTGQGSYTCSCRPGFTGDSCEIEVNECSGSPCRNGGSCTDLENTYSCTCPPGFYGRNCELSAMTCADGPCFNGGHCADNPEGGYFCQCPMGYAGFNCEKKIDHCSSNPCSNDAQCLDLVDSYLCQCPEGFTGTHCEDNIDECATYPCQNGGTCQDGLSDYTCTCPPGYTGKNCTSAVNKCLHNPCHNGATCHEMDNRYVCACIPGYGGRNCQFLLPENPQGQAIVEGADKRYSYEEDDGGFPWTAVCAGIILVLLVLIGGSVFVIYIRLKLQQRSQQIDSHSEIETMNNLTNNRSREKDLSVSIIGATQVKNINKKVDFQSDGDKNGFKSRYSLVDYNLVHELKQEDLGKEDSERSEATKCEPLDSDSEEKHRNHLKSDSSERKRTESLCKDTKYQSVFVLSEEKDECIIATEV
full-length DeltaD: residues 20-717 of Q8UWJ4
DeltaD ∆D (with terminal amino acids 694 to 717 deleted): residues 20-693 of Q8UWJ4
DeltaD ∆C-D (with aa 626 to 717 deleted): residues 20-625 of Q8UWJ4
DeltaD ∆B-D (with aa 584 to 717 deleted): residues 20-583 of Q8UWJ4
DeltaD ∆A-HA (A domain, aa 573–584, deleted) (Q8UWJ4, form named): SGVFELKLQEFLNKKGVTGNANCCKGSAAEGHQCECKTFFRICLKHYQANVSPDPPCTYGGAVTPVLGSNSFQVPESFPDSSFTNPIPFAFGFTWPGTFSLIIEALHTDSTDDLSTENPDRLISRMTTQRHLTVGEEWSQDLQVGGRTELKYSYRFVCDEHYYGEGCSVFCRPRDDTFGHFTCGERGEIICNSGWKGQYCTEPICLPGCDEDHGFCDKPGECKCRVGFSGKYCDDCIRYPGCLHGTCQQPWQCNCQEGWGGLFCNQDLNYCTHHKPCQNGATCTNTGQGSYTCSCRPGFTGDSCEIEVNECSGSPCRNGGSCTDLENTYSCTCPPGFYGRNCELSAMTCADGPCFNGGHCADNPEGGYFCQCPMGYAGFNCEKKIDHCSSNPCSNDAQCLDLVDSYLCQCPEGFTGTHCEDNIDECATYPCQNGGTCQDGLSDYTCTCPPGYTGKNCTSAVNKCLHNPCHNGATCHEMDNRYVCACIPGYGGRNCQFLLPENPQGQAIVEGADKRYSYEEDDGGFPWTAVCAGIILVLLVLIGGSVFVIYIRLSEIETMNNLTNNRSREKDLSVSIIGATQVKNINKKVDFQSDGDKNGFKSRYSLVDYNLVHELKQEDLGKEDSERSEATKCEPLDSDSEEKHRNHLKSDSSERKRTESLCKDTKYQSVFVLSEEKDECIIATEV
DeltaD ∆C-HA (C domain, aa 626–694, deleted) (Q8UWJ4, form named): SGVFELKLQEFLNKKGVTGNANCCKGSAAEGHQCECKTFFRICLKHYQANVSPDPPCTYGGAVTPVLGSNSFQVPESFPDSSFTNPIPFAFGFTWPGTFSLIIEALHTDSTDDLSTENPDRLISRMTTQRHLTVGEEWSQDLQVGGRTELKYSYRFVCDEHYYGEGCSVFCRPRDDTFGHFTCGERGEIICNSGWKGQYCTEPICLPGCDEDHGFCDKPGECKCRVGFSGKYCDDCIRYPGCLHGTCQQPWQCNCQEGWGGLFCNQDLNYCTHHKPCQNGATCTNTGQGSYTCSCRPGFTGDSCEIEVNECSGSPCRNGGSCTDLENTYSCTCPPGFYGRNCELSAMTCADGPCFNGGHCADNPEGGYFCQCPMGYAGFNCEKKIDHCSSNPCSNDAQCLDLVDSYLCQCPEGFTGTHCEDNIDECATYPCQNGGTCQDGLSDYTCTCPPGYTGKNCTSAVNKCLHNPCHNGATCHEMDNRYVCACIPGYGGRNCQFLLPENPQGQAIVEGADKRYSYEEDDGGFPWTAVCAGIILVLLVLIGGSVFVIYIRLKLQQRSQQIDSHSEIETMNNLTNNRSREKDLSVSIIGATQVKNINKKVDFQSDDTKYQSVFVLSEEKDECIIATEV
DeltaD-NN (N591A / N592A) (Q8UWJ4, form named): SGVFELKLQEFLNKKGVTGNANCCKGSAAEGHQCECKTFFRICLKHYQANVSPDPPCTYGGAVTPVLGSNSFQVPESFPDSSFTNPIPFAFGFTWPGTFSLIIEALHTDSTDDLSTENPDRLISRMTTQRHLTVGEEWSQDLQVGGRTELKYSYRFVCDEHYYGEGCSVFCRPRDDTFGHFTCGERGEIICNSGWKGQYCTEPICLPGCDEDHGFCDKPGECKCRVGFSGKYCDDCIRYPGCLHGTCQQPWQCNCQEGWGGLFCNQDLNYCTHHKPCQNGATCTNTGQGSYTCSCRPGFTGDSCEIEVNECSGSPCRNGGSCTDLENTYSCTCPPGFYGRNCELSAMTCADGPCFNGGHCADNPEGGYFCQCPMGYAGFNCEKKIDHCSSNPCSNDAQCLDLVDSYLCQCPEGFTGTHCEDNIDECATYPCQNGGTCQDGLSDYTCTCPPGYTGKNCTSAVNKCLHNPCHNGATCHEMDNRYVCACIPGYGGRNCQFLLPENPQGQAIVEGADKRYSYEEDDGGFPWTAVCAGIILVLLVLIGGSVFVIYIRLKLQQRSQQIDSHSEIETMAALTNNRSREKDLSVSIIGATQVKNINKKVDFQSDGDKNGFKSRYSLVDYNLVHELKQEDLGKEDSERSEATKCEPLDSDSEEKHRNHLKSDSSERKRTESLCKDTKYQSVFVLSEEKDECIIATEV
DeltaD-NN/KK (N591A / N592A / K614A / N615A / N617A / K618A / K619A) (Q8UWJ4, form named): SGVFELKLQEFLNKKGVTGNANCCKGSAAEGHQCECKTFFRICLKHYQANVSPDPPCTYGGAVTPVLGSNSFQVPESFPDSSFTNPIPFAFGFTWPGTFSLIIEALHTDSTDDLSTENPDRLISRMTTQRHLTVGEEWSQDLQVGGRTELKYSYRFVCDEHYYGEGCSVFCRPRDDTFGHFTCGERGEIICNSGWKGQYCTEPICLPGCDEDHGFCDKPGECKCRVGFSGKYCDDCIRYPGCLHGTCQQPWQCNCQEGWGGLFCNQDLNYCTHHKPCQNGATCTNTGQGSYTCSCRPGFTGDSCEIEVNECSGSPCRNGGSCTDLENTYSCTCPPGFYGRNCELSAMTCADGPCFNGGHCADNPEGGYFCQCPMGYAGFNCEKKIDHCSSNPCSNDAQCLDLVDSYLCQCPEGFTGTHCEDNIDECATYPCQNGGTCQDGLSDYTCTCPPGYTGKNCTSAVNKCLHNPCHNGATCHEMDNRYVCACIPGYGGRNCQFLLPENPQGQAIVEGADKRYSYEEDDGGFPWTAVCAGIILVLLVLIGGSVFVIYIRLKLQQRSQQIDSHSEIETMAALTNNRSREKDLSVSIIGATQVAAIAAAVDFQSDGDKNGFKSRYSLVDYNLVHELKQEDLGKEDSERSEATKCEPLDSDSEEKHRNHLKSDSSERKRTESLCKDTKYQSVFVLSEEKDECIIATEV

How the values were obtained:
[1] = molecular target: Myc-Mib1 (Mind bomb1, RING E3 ligase) (zebrafish) (UniProt Q804S5); assay: co-IP; COS 7 or HEK293T cells co-transfected with HA-tagged DeltaD forms with or without Myc-Mib1; Myc-Mib1 precipitated with anti-Myc, DeltaD detected with anti-HA; modified RIPA buffer, 4C
[2] = molecular target: DeltaD ∆B-D (with aa 584 to 717 deleted) (zebrafish) (UniProt Q8UWJ4); assay: co-IP; HEK293T cells co-transfected with untagged DeltaD forms and Myc-Mib1; DeltaD precipitated with zdd2 antibody, Mib1 detected with anti-Myc; modified RIPA buffer (50mM Tris-HCL pH7.4, 150mM NaCl, 1% NP-40, 0.25% sodium deoxycholate), 4C
[3] = molecular target: DeltaD ∆C-D (with aa 626 to 717 deleted) (zebrafish) (UniProt Q8UWJ4); assay: as above
[4] = molecular target: DeltaD ∆D (with terminal amino acids 694 to 717 deleted) (zebrafish) (UniProt Q8UWJ4); assay: as above
[5] = molecular target: full-length DeltaD (zebrafish) (UniProt Q8UWJ4); assay: as above

| binding [1] | Substance | further results |
| --- | --- | --- |
| binds | DeltaD-HA (HA-tagged full length DeltaD) (from UniProt Q8UWJ4 20-717) (ligand) |  |
| no binding | DeltaD-NN/KK (N591A / N592A / K614A / N615A / N617A / K618A / K619A) (from UniProt Q8UWJ4 20-717) (ligand) |  |

Continued, substance first:

| Substance | binding [1] | further results |
| --- | --- | --- |
| DeltaD ∆A-HA (A domain, aa 573–584, deleted) (from UniProt Q8UWJ4 20-717) (ligand) | binds weakly |  |
| DeltaD ∆C-HA (C domain, aa 626–694, deleted) (from UniProt Q8UWJ4 20-717) (ligand) | binds |  |
| DeltaD ∆D-HA (D domain, 694–717, deleted) (from UniProt Q8UWJ4 20-693) (domain or fragment) | binds |  |
| DeltaD-NN (N591A / N592A) (from UniProt Q8UWJ4 20-717) (ligand) | binds |  |
| Myc-Mib1 (Mind bomb1, RING E3 ligase) (from UniProt Q804S5 1-1030) (enzyme) |  | binding [2]: no binding; binding [3]: binds; binding [4]: binds; binding [5]: binds |
